The text below walks through data of publication PMC7819943, “Rice protein-binding microarrays: a tool to detect cis-acting elements near promoter regions in rice”.

The list shows a part of the results.

The target in this test is T1, OsWOX13 (Oryza sativa, UniProt Q5QMM3 1-267).
T1 sequence: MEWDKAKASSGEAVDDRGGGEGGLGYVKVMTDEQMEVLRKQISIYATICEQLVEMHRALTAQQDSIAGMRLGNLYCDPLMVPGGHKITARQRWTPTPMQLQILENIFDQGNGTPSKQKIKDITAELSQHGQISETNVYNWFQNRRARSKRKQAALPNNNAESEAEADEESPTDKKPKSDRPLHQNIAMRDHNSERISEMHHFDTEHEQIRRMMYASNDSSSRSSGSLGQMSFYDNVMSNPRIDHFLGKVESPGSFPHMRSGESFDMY
The test is described as follows: protein-binding microarray (RPBM); PBS, 2% BSA, 51.3 ng/ul salmon testes DNA, 50 uM zinc acetate, 200 nM TF, 25 C, 1 h; high values mean tight binding. The note with it: protein: recombinant; tags: N-terminal polyhistidine and DsRed monomer fusion (pET32a); label: CyDye5-dUTP incorporated in the synthesized complementary strand; 3' TTTTT single-stranded linker to array surface; dsDNA, one strand shown. The essentials: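 For the binding signal, per-feature fluorescence intensity was read in arbitrary units on an Axon 4000B scanner. Before scanning, a 2% BSA-blocked custom Agilent array made double-stranded with Cy5-dUTP was washed after 1 h at 25 °C with 200 nM protein and 50 µM zinc acetate. The proteins were Ni–NTA-purified transcription factors with N-terminal polyhistidine and DsRed fusions, expressed in E. coli BL21-CodonPlus.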
Consider “GGAAAATTGCAACCAAATCATCCTAATGCGTCATATTTTCCGGAGTCACCTAGTGCAG”, for which the binding signal was 3420 fluorescence intensity (a.u.).
The value for “TGTGCTAATCACAAATAATTATCACCTACTCCTAGCTCTGCGGAGTCACCTAGTGCAG” was 24400 fluorescence intensity (a.u.).
As for “ATTGATAGATAGATAGATTTATGCAGCTCAAGTTTACACACGGAGTCACCTAGTGCAG”, the binding signal was 47600 fluorescence intensity (a.u.).
The value for “CTTGACTAGCTGACTGTTCTTACAAGTGACATCAGTCGAGCGGAGTCACCTAGTGCAG” was 7850 fluorescence intensity (a.u.).
The value for “AAAATTTAAATTTTCAGGCTTAAATTTGAAATTGATTTTACGGAGTCACCTAGTGCAG” was 7780 fluorescence intensity (a.u.); that for “CAATGACTGATTACTGTGTTGATAGAATTTCATATACATTCGGAGTCACCTAGTGCAG” was 34300 fluorescence intensity (a.u.); that for “TGGCTGCTGATTGCAACAGTGGTACTGACATTAGCAGCAGCGGAGTCACCTAGTGCAG” was 16300 fluorescence intensity (a.u.).
The value for “ATTTAAACTACCTTTTCATTGACACATGCACTCTCACCGACGGAGTCACCTAGTGCAG” was 3190 fluorescence intensity (a.u.).
As for “ATATAATTTGCTTTAAAGTGAATATGTTATCACCGCAGATCGGAGTCACCTAGTGCAG”, the binding signal is 23700 fluorescence intensity (a.u.).
Consider “AGACAAGGTAATTACCTTCCAGATAAACATTTAGAAAGAACGGAGTCACCTAGTGCAG”, for which the binding signal is 5950 fluorescence intensity (a.u.).
The value for “AAGATAAATGACATACATACCCCTAATAATGCACTAGGATCGGAGTCACCTAGTGCAG” was 9380 fluorescence intensity (a.u.); that for “CCTCCGAATTGATATTTTGTTTTGAGAGATCTTGTTTACTCGGAGTCACCTAGTGCAG” was 6130 fluorescence intensity (a.u.).
Regarding “ATTAATTAGCCTCCCACAACTCCTTAATTCCATCTCCTCTCGGAGTCACCTAGTGCAG”, the binding signal was 3510 fluorescence intensity (a.u.).
The value for “TGCCACACAAATTTTGCAAAATTTGTGATATGCCACCTGACGGAGTCACCTAGTGCAG” was 6080 fluorescence intensity (a.u.).
The value for “TTTCAATCCAAATCATTTTATTATTTCTACGCTATCTAATCGGAGTCACCTAGTGCAG” was 5440 fluorescence intensity (a.u.); that for “ACGAGATAACTATTTAACAAATTTGAAGTAAAATCATATTCGGAGTCACCTAGTGCAG” was 4870 fluorescence intensity (a.u.); that for “ATGGATTAATTAGGCTCAAAAGATTTGTCTCACTATTTCCCGGAGTCACCTAGTGCAG” was 13500 fluorescence intensity (a.u.).
The value for “AATAAGTAATACTCAATTAATTATGTACTAATGACTCATCCGGAGTCACCTAGTGCAG” was 13800 fluorescence intensity (a.u.); that for “ATCTGATTCGTGATTAATTAGTAATTAATTAATCTTTACTCGGAGTCACCTAGTGCAG” was 61000 fluorescence intensity (a.u.); that for “AGCAATTATTATCTAAAATGTTTTAGATCACATGCATCTGCGGAGTCACCTAGTGCAG” was 6500 fluorescence intensity (a.u.).
“GGGGTGATGATGTATACTTAAAACCATTCTTGGAGGATGACGGAGTCACCTAGTGCAG”: the binding signal is 4430 fluorescence intensity (a.u.).
On to “ATCGGTCGATTAATTTACTTGAGTAATGCCTTTTAGCCTCCGGAGTCACCTAGTGCAG”, for which the binding signal was 4620 fluorescence intensity (a.u.).
For “ATACTGTAACTGAGTACAAATTTATAACCCGCTTTTCCTCCGGAGTCACCTAGTGCAG”, the binding signal is 4710 fluorescence intensity (a.u.).
The value for “TGCACTAATTATCTGCATCGATCCAAACCTCAGCTATAAACGGAGTCACCTAGTGCAG” was 10100 fluorescence intensity (a.u.); that for “CAATTTCAGTTATCCATGTTTAACACAACTATTTACTCAGCGGAGTCACCTAGTGCAG” was 3320 fluorescence intensity (a.u.).
Consider “AGATGATTAATTGCACATTTGTTTGTTTTATGTTCGATTACGGAGTCACCTAGTGCAG”, for which the binding signal is 46900 fluorescence intensity (a.u.).
The value for “TGTATCCTAAACTATAATTTAGCGGTAAATTATTTCCAAACGGAGTCACCTAGTGCAG” was 8910 fluorescence intensity (a.u.); that for “GAATTGACTCAGTTGATTGCTGCAGGTGGATGTTATTATACGGAGTCACCTAGTGCAG” was 11300 fluorescence intensity (a.u.); that for “GTTTAATTAATTATATGTTAATGATTTTCTTTTCATGCCCCGGAGTCACCTAGTGCAG” was 65400 fluorescence intensity (a.u.).
The value for “CCCATATTTGTCTAATTTCTGTGAGCAGTCTACCCATTATCGGAGTCACCTAGTGCAG” was 4420 fluorescence intensity (a.u.).
The value for “ACACCAATTGAACATTTGGATGTAAACATTAGGGATGCTGCGGAGTCACCTAGTGCAG” was 3400 fluorescence intensity (a.u.); that for “CGTTCCAATTTCAATCAAACTTTCAATTTTAATGTGAAGTCGGAGTCACCTAGTGCAG” was 19700 fluorescence intensity (a.u.).
On to “TAATTTGCTAGTACCACTGTAATTTACTAGGCCACTCACGCGGAGTCACCTAGTGCAG”, for which the binding signal was 3560 fluorescence intensity (a.u.).
As to “GTTTAATTAATCCTTCATTAGCAAATGTTTACTGTAGCATCGGAGTCACCTAGTGCAG”, the binding signal was 29000 fluorescence intensity (a.u.).
The value for “GGAGTAGATTGAAAATTGTCCGATCCGTCTATTAATCAGACGGAGTCACCTAGTGCAG” was 21500 fluorescence intensity (a.u.).
“TATTCAATTAAATGAAAATACACATATATGGAGCACCGATCGGAGTCACCTAGTGCAG”: the binding signal was 17300 fluorescence intensity (a.u.).
The value for “GCCTAATTAATCCATAATTAGCAAAAGTTGACTGTAGCAACGGAGTCACCTAGTGCAG” was 47400 fluorescence intensity (a.u.).
The value for “GTAAACAAACTCTTATTTAAATTTGTTTATGTAATATCATCGGAGTCACCTAGTGCAG” was 6300 fluorescence intensity (a.u.).
The value for “CATATGATAGATGGCAATTCGTCCACTAGCATGAACAAATCGGAGTCACCTAGTGCAG” was 12400 fluorescence intensity (a.u.).
For the sequence “TGTTTGTGCTTAATTAATTAATTGTTGAATAGCCGAATGACGGAGTCACCTAGTGCAG”, the binding signal was 9650 fluorescence intensity (a.u.).
The value for “CAAAACTGAACATGAGATAAATTTGTCCCTGCCAAAATTGCGGAGTCACCTAGTGCAG” was 6700 fluorescence intensity (a.u.); that for “GTGTAATTTTACGAAAACAAGTCATAAAACCATCGTTTTACGGAGTCACCTAGTGCAG” was 4060 fluorescence intensity (a.u.).
